# Test results from PubChem BioAssay AID686978 (National Center for Advancing Translational Sciences (NCATS), 2013).
# In all, about 420,000 compounds went through this assay and about 64,000 (15%) were called active. Inconclusive results, whose numbers are uncertain, are shown with a selection of clear calls. Calls come from the whole dose curve; as a rule, active = well fitted inhibition curve with a large enough effect; inconclusive = small, poorly fitted or top-dose-only effect; inactive = flat fitted curve, though single readings scatter. No potency is given beside an inconclusive call; the fits are too rough.
# Test: qHTS for Inhibitors of human tyrosyl-DNA phosphodiesterase 1 (TDP1): qHTS in cells in absence of CPT; note: nearly all actives have a fitted effect of over 55% in size
# Settings: DT40 Tdp1-/- hTDP1 cells, no CPT, ATP luminescence, 48 h; series mostly up to 46.2 µM
# From the text: Human tyrosyl-DNA phosphodiesterase 1 (TDP1) is a novel repair gene, and we propose to use it as a new target for anticancer drug development. TDP1 is not an essential protein, but under treatment with topoisomerase I poison (camptothecin: CPT), TDP1 works as a critical factor for cell survival. To directly identify novel TDP1 inhibitors active in a cellular environment, we have knocked-out the Tdp1 gene in chicken DT40 cells (Tdp1-/-) and generated a complemented counterpart cells that contains a stable transfection of the human TDP1 gene (Tdp1-/-;hTDP1 cells). For the primary screen, Tdp1-/-;hTDP1 cells will be exposed to small molecules in the presence or absence of CPT, and their growth kinetics will be evaluated after 48 hours by measuring ATP activity. […] The hit compounds will then be evaluated in the presence or absence of CPT using Tdp1-/- cells. […] In tertiary assays, biochemical gel-based assays will be used to assess whether the hit compounds specifically target TDP1.
# To this end, we have screened this cell line against the MLSMR in two primary screens. In one screen we add CPT and in the other we screen in the absence of CPT; this AID represents the screen where CPT was absent.
# NIH Chemical Genomics Center [NCGC]
# NIH Molecular Libraries Probe Centers Network [MLPCN]
# Assay Submitter (PI): Yves Pommier, NCI
# DT40-hTDP1 cells without 20 nM Camptothecin (add 20 microL of DMSO in 1 L of cell culture medium) were dispensed at 400 cells/5microL/well in tissue culture treated 1536-well white wall/solid bottom assay plates (Greiner Bio-One North America, NC, U.S.A.) using a Multidrop Combi 8 channel dispenser (Thermo Fisher, Waltham, MA, USA). 23 nL compounds and controls were transferred using the pin tool (Kalypsys, San Diego, CA, USA) to the assay plates. The assay plates were then incubated at 37 masculineC for a minimum 48 hr. Three microL of Cell Titer Glo solution was added to the plates and incubated at RT in dark for 30 min. Luminescence was read using ViewLux (Perkin Elmer) with 1 sec exposure slow speed, high gain and 2x binning.
# Potency is the fitted concentration of half-maximal effect; tags give direction and shape of the fitted curve.
row,SMILES,Potency
1,COC(=O)Cn1cc(/C=C2\C(=O)NC(=O)N(c3ccc(OC)cc3)C2=O)c2ccccc21,active: 2.31 µM
2,COC(=O)C1=C(c2ccc(F)cc2F)C[C@@H]2CC[C@H]1N2C,inactive
3,CC(=O)NC1CCSC1=O (centres undefined),inactive
4,O=[N+]([O-])c1ccc(N2CCCC2)c2ccncc12,active: 20.6 µM
5,C[C@]12CCC3C(CC[C@H]4C[C@@H](O)CC[C@]34C)[C@@H]1CCC2=O (some centres undefined),active: 29.9 µM
6,CCOP(=O)(OCC)C(Cc1ccccc1)N=C(c1ccccc1)c1ccccc1 (centres undefined),active: 14.6 µM
7,Cc1cc(O)c2c(c1)C(=O)C13C(=C2O)C(=O)[C@H]2[C@@H](O)[C@@H]1[C@H]1[C@H](O)[C@@H]3C(=O)C3=C(O)c4c(O)cc(C)cc4C(=O)C312 (some centres undefined),active: 1.16 µM
8,O=C(COc1ccccc1F)N1CCN(Cc2cc(=O)n3nc(-c4ccccc4Cl)sc3n2)CC1,active: 14.6 µM
9,Nc1ccc(-c2ccccc2)cc1,inactive
10,CCN(CC)CCN1C(=O)CN=C(c2ccccc2F)c2cc(Cl)ccc21,active: 26.6 µM
11,C[n+]1c(-c2ccccc2)cc(CCCCc2cc(-c3ccccc3)[n+](C)c(-c3ccccc3)c2)cc1-c1ccccc1,active: 5.17 µM
12,Nc1ccc(CCN2CCCC2)cc1,inactive
13,CN(C)/C=C/C(=O)C(Cl)(Cl)Cl,inactive
14,C[C@H]1CN([C@@H](C)CO)C(=O)c2cc(NC(=O)C3CCCCC3)ccc2O[C@H]1CN(C)Cc1ccc(-c2ccccc2)cc1,"inconclusive [inhibitor, single point]"
15,CC1CCN(C(=O)CCl)CC1,active: 16.4 µM
16,O=C(CN1CCCCC1)c1ccccc1Cl,inactive
17,CCOC(=O)C(O)(c1ccc(NC(=O)NC2CCCCC2)cc1)C(F)(F)F (centres undefined),"inconclusive [inhibitor, single point]"
18,Cc1ccc(CN2C(=O)CN=C(c3ccccc3)c3ccccc32)cc1,"inconclusive [inhibitor, single point]"
19,N#CSCC(=O)N1c2ccccc2CCc2ccccc21,active: 7.31 µM
20,Nc1cc2nc3ccccc3nc2cc1N,"inconclusive [inhibitor, single point]"
21,Cc1nc2c(C(=O)N3CCC4(CC3)OCCO4)cnn2c(C)c1Cc1cccc(Cl)c1,"inconclusive [inhibitor, single point]"
22,CN1CC(C(=O)c2ccccc2)C(c2ccccc2)C1 (centres undefined),"inconclusive [inhibitor, partial curve, poor fit]"
23,O=C(CSC1c2ccccc2-c2ccccc21)N/N=C/c1ccccc1C(=O)O,"inconclusive [inhibitor, single point]"
24,Cc1cccc(Cc2cnc(NC(=O)c3ccc4c(c3)CC(c3ccccc3)OC4=O)s2)c1 (centres undefined),active: 20.6 µM
25,CCCCn1nc(C)c(C(=O)O)c1Cl,inactive
26,C=CCn1c(O)c(C(CC)=Nc2ccc3c(c2)CCC3)c(=O)[nH]c1=O,"inconclusive [inhibitor, single point]"
27,Oc1ccccc1-c1ccccc1,inactive

row,SMILES,Potency
1,CCCCNC(=S)N1CCn2cccc2C1c1cccnc1 (centres undefined),inactive
2,CNC(=O)Oc1ccccc1OC(C)C,inactive
3,CCOP(=O)(OCC)C(O)c1ccc(OC)cc1OC (centres undefined),inactive
4,CCCCn1c(O)c(/C=C2/C=CC=N2)c(=O)[nH]c1=O,active: 4.11 µM
5,O=P(C(c1c[nH]c2ccccc12)N1CCOCC1)(N1CCOCC1)N1CCOCC1 (centres undefined),inactive
6,COCc1cc(C)c(C#N)c(=S)[nH]1,active: 0.82 µM
7,CCCCCCCCCC(CC)c1ccc(S(=O)(=O)O)cc1 (centres undefined),"inconclusive [inhibitor, single point]"
8,CCCCCOc1ccc(C2SC(=O)NC2=O)cc1OCC (centres undefined),"inconclusive [inhibitor, single point]"
9,Cc1ccc(C)c(NC2=NCCCS2)c1,"inconclusive [inhibitor, full curve]"
10,CCOc1ccc(N2C(=O)/C(=C/c3ccc(C)o3)C(=O)NC2=S)cc1,active: 25.9 µM
11,O=Cc1cn(Cc2c(F)cccc2Cl)nc1-c1ccccc1,"inconclusive [inhibitor, single point]"
12,CCOP(=O)(OCC)c1nc(-c2ccccc2)oc1NCc1ccccc1,"inconclusive [inhibitor, partial curve, poor fit]"
13,CN1C(=O)C(=Cc2ccc(N3CCOCC3)o2)C(=O)N(C)C1=S,inactive
14,Cc1cc(C)c2c(c1)NP(=S)(c1ccccc1)N2 (centres undefined),inactive
15,COCCOC(=O)c1c(N)n(Cc2ccccc2)c2nc3ccccc3nc12,"inconclusive [inhibitor, single point]"
16,On1ccccc1=S,active: 0.0092 µM
17,CC(C)COP(=O)(OCC(C)C)C(Nc1ccccc1)c1ccccc1 (centres undefined),"inconclusive [inhibitor, single point]"
18,O=C(NC1CCCCC1)N1Cc2cc(-c3cccc(F)c3)ccc2-n2nncc2C1,"inconclusive [inhibitor, single point]"
19,Cc1nnc2n1-c1ccc(Br)cc1C(c1ccccc1Cl)=NC2,inactive
20,Cc1cccc(CN2CC=C(c3noc(CCC(=O)Nc4ccc(C)c(F)c4)n3)CC2)c1,active: 13 µM
21,CC1(C)CSC(=NCc2ccccc2)N1,inactive
22,O=[N+]([O-])c1ccc(N2CCCCCC2)c2nonc12,"inconclusive [inhibitor, single point]"
23,COC(=O)C1=C(c2ccc(OCc3ccccc3)cc2)C[C@@H]2CC[C@H]1N2C(=O)NCc1ccc2[nH]ccc2c1,"inconclusive [inhibitor, single point]"
24,Cc1ccc(-n2sc3ccccc3c2=O)cc1,active: 3.26 µM
25,COc1cc(Cl)c(C)cc1NC(=O)CCCn1c(=O)oc2ccccc21,"inconclusive [inhibitor, single point]"
26,CCC(=NCCCN1CCOCC1)c1c(O)n(Cc2ccccc2)c(=O)[nH]c1=O,inactive
27,Fc1ccc(C2=CCN(C(c3ccc(Cl)cc3)c3nnnn3Cc3ccccc3)CC2)cc1 (centres undefined),"inconclusive [inhibitor, single point]"
